# Results reported in PubChem BioAssay AID488969 (Vanderbilt High Throughput Screening Facility, 2010).
# Over roughly 110,000 compounds, “z-score” has its median near -0.1; the highest 2% begin near 2. The list shows a part of the results.
# Molecular target: Metabotropic glutamate receptor 8 (Rattus norvegicus) (UniProt P70579)
# Assay: rat mGluR8 modulators via GIRK flux, primary screen, cell-based, thallium flux, HTS (AID 488969)
# Conditions: HEK293 rat mGluR8, GIRK (G protein-gated inwardly rectifying potassium channel) thallium flux, FluoZin2; at 10 µM; stronger effect = higher value; submaximal glutamate (EC20) added with thallium
# Sequence of UniProt P70579 (P70579 whole entry, looked up): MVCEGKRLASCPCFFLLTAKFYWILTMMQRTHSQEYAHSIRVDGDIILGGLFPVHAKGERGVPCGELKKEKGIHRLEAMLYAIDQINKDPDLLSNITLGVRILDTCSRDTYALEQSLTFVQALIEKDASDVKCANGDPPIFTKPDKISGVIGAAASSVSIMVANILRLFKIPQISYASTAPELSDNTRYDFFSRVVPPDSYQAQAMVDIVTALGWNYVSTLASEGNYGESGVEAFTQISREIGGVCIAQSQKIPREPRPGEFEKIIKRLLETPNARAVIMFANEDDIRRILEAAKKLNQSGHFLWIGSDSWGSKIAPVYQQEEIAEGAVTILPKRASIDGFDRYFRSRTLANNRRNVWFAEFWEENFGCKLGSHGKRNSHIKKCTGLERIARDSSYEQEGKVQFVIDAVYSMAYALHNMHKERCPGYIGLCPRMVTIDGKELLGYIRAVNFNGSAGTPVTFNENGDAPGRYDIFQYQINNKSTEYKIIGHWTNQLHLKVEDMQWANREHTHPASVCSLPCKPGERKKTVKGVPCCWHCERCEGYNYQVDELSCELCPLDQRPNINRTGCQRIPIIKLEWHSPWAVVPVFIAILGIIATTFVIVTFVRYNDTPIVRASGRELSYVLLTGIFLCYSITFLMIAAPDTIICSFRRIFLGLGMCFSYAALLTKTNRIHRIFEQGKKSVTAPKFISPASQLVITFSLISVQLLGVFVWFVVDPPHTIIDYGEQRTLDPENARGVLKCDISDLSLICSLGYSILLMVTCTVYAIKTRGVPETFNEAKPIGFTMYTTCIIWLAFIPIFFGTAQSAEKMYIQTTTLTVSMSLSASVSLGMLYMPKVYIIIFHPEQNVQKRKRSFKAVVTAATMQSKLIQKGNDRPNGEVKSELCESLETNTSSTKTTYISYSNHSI
row,SMILES,z-score
1,COc1ccc(-c2cc(C(F)(F)F)nc(N3CCOCC3)n2)cc1,-0.167
2,COc1cccc(-c2cc3c(=O)n(-c4ccccc4)c(=S)[nH]c3s2)c1,0.0948
3,O=C(c1ccc2c(c1)OCCO2)N1CCCCC1,-0.102
4,Cc1ccc(S(=O)(=O)Nc2ccc3oc(=O)sc3c2)c(C)c1,-0.162
5,N#Cc1c(Cl)nc(SCc2ccccc2)nc1-c1ccccc1,-1.25
6,O=C(c1cc(-c2ccco2)nn1-c1cccc(Cl)c1)N1CCCCC1,-0.886
7,COc1ccc(S(=O)(=O)N2CCN(C(=O)c3c(C)nn(-c4ccccc4)c3Cl)CC2)cc1,0.514
8,CNC(=O)COc1ncnc2sccc12,-0.352
9,CCCCCCCCC(=O)Nc1cc(C)ccc1OC,0.909
10,O=C(N/N=C/c1ccc(Cl)cc1)c1cc2c(s1)-c1ccccc1CC2,0.0437
11,COC(=O)CC/C(C)=N\Nc1ccc([N+](=O)[O-])cc1[N+](=O)[O-],-0.962
12,CCOc1ccc(Nc2oc(-c3ccccc3Cl)nc2C#N)cc1,-0.217
13,N#Cc1c(-c2ccc(F)cc2)cc(C2CC2)nc1SCC(=O)c1cccs1,-0.015
14,COC(=O)C(C)N(C#N)c1nc(NC(C)C)nc(SC)n1 (stereo not drawn),-1.22
15,CCOc1c(Cl)cc(/C=N/NC(N)=S)cc1OC,0.0379
16,Cc1c(C(=O)OC2CCC(C)CC2)[nH]c2c1C(=O)CCC2 (stereo not drawn),-0.601
17,CCOC(=O)c1c(-c2ccccc2)csc1NC(=O)C(C)NCc1ccco1 (stereo not drawn),-0.0896
18,COC(=O)c1oc2ccc(Cl)cc2c1N,0.041
19,CCOc1ccc(NC(=S)N2CCC(N(C)CC3CCCO3)CC2)cc1 (stereo not drawn),-0.287
20,CC(C)N(c1ccccc1)c1ncnc(NCCC(=O)O)c1[N+](=O)[O-],-0.384
21,COC(=O)C1=NN(c2ccc(C)cc2)C2(S1)SC(C(C)=O)=C(C)N2c1ccccc1 (stereo not drawn),-0.0607
22,Clc1ccc(-c2nc3nc4ccccc4nc3n2Cc2ccco2)cc1,0.139
23,C[C@H](NC(=O)NC1CCCc2ccccc21)C(=O)O (stereo partly drawn),-0.0913

row,SMILES,z-score
1,COc1ccc(S(=O)(=O)N(CCc2ccccc2)CC(=O)NC(C)C)cc1,-0.387
2,c1ccc2c(c1)N1CCN=C1N2CCN1CCCCC1,-0.329
3,COc1ccc(C(=O)/C=C/c2ccc(OC)c(Cn3nnc4ccccc43)c2)cc1,-0.713
4,Cc1c(C#N)c(N=CN(C)C)c(C(=O)c2ccccc2)n1-c1ccc(Br)cc1,-0.637
5,CCOP(=O)(OCC)C(C#N)=C1SCN(c2ccccc2)CS1,-0.315
6,CN1CCN(c2ccc([N+](=O)[O-])cc2C(=O)c2ccc(Cl)cc2)CC1,-0.238
7,CC(C)CC(=O)Nc1ccc2c(c1)oc1ccccc12,-0.0658
8,O=C(CN1CCN(Cc2ccccc2)CC1)Nc1ccc([N+](=O)[O-])cc1C(=O)Nc1ccccc1F,-0.373
9,COC(=O)C1(CCSC)NC(c2ccc(O)cc2)C2C(=O)N(c3ccc4c(c3)OCCO4)C(=O)C21 (stereo not drawn),-0.167
10,Cc1cccc(-c2c3c(=O)n(C)c(=O)n(C)c3c3nnc4ccccc4n23)c1,0.784
11,CCOC(=O)N1CCN(C(=O)CSCc2ccc(Cl)cc2)CC1,0.0343
12,Cn1c(=O)n(C)c2cc([N+](=O)[O-])c(N3CCN(C(=O)c4ccccc4Cl)CC3)cc21,-0.0103
13,COc1cc(C2NC(=O)NC(C)=C2C(=O)NCc2ccccc2)c(Cl)cc1O (stereo not drawn),0.0361
14,CC(CN1CCOCC1)OC(=O)c1cccc(Br)c1 (stereo not drawn),-1.01
15,C/C(=N/NC(=O)Cc1cccc2ccccc12)c1cccs1,-0.221
16,Cc1nc2c(C)cccc2cc1C(=O)N/N=C/c1cccc([N+](=O)[O-])c1,-0.361
17,CC1CCCN(CCSc2ccc(Cl)cc2)C1 (stereo not drawn),-0.781
18,O=C(NCCc1c[nH]c2ccccc12)c1cnc2sccn2c1=O,0.161
19,N=c1oc2cc(O)ccc2cc1C(=O)Nc1nc2ccccc2s1,0.0207
20,N#CCCn1cnc2c(=S)nc[nH]c21,0.0528
21,Cc1nn2c(-c3ccccc3)ccnc2c1-c1ccccc1,-0.391
22,Cc1ccnc(SCC(=O)N2CCN(c3ccccc3)CC2)n1,-0.0893
23,CC1CCCCN1C(=O)NC12CC3CC(CC(C3)C1)C2 (stereo not drawn),-0.518

row,SMILES,z-score
1,COCC(=O)Nc1nc(-c2ccc(C)cc2)c(C)s1,0.166
2,CCCCCCCCNC(=O)CCNC(=O)c1ccc(C(C)(C)C)cc1,-0.0861
3,O=C(COC(=O)c1sc2ccccc2c1Cl)NC1CCCCC1,-0.479
4,COC(=O)C(C(=O)N1CCN(C)CC1)C1CCCCCC1 (stereo not drawn),-0.0578
5,COc1cccc(C(=O)Nc2cc3c(cc2C(C)=O)OCCO3)c1,-0.187
6,Cc1nc2ccccc2c(=O)n1NC(=O)Nc1ccccc1,-0.194
7,OC1CCCN(Cc2ccc3ccc4cccc5ccc2c3c45)C1 (stereo not drawn),1.48
8,COc1ccc(CNC(=O)CCc2nc(-c3ccccc3F)no2)c(OC)c1,-0.46
9,O=C(CN1CCOCC1)NC1C2CC3CC(C2)CC1C3 (stereo not drawn),0.182
10,COc1cccc(C=Nc2cc(C)cc(C)c2)c1O,-0.66
11,COc1cccc(-c2nnc(NC(=O)C3CCCCC3)o2)c1,-0.375
12,O=C1c2ccccc2C(=O)N1OCc1cccc(Cl)c1,-0.573
13,O=c1[nH]c(CN(CCO)CCO)nc2c1C1(CCCCC1)Cc1ccccc1-2,-0.162
14,O=C(CN1CCC(O)(c2ccccc2F)CC1)NCCc1c[nH]c2ccccc12,-0.657
15,Cc1ccc(C)c(C(=O)CC2(O)C(=O)Nc3ccccc32)c1 (stereo not drawn),0.94
16,CCCNC(=O)Cn1cnc2sc(C(=O)N3CCN(c4ccc(F)cc4)CC3)c(C)c2c1=O,-0.159
17,O=C(CN1CCN(c2ccccn2)CC1)Nc1ccc2ccccc2c1,-0.148
18,Cc1nn(-c2cccc3cccnc23)c(=O)c2ccccc12,-0.222
19,CCN(CC)S(=O)(=O)c1ccc(Oc2ccccc2)cc1,-0.314
20,COc1ccc(C(=O)Nc2nc(-c3cccs3)cs2)cc1,0.215
21,O=C(O)c1cccc(C(=O)O)n1,0.451
22,CCc1ccc2c(c1)C(c1ccc([N+](=O)[O-])cc1)=NNC(c1ccc(F)cc1)=N2,-0.112
23,CCCc1nc2ccccc2c(=O)n1-c1c(C)n(C)n(-c2ccccc2)c1=O,0.0215

row,SMILES,z-score
1,CCOC(=O)c1ccc2c(c1)nc(SCC(=O)c1cc3ccccc3o1)n2CC,1.43
2,COc1ccc(C(=O)NCS(=O)(=O)c2ccc(C)cc2)cc1,-0.551
3,O=C(Nc1nnc(C2CCCCC2)s1)c1cccs1,-0.112
4,COC(=O)COc1cccc2c(=O)n(CC(=O)N3CCCc4ccccc43)ccc12,-0.0104
5,COc1ccc2c(c1)[n+](=O)c(C(C)=O)c(C)n2[O-],-0.432
6,Cc1ccc(Cn2c(C)nc3c(c2=O)c2nc4ccccc4nc2n3Cc2ccco2)cc1,-0.694
7,Cn1c(C(=O)NC2CCCC2)cc2c(=O)n(C)c3ccccc3c21,-0.47
8,O=C(CN1CCN(CC(=O)Nc2ccc3c(c2)OCO3)CC1)Nc1ccc(F)cc1,-0.509
9,COC(=O)CCC(=O)NC(=S)Nc1c(C)cccc1C,-0.125
10,CCCCC(=O)Nc1ccc2c3c(cccc13)C(=O)N2CC,-0.239
11,CC(C)c1ccc(S(=O)(=O)Nc2ccc(SC(F)F)cc2)cc1,0.236
12,CC(C)(C)C(=O)N1CCc2cc(-c3csc(N)n3)ccc21,0.0758
13,CSc1nnc2c(n1)OC(C)N(C(=O)c1ccccc1)c1ccccc1-2 (stereo not drawn),-0.907
14,CCOC(=O)c1c(C)n(C)c2ccc(OCC(O)CN3CCCCCC3)cc12 (stereo not drawn),0.855
15,COc1ccc(NC(=O)CSc2ncc(-c3ccc(F)cc3)n2Cc2ccco2)cc1,-0.157
16,COc1ccc(N2CCN(C(=O)C(OC(C)=O)c3ccccc3)CC2)cc1 (stereo not drawn),-0.159
17,C=CCCCCCCCCC(=O)Nc1c[nH]c(=O)[nH]c1=O,0.477
18,CC(=O)c1ccc(-c2nc3c4ccccc4ccn3c2C(C)=O)o1,-0.508
19,CNC(=O)C1CC(=O)N(Cc2ccccc2)C(=Nc2ccc(OC)cc2)S1 (stereo not drawn),-0.0283
20,Cc1cc(=O)n2[nH]cnc2n1,-0.209
21,C=CCN=C1CC(C)(C)CC(=O)/C1=C(\O)c1ccccc1,-0.221
22,COc1ccc2c(c1)c(C(=O)CNc1nc(C)cs1)c(C)n2C,-0.498
23,O=C(Nc1ccc(OC(F)(F)C(F)F)c(NC(=O)c2ccc(F)cc2)c1)c1ccc(F)cc1,-0.0765

row,SMILES,z-score
1,O=C(Nc1ccccc1Oc1ccccc1)c1ccc(Br)o1,-0.497
2,COc1ccc(-c2cc(C(F)(F)F)nc(SCC(=O)Nc3cc(C)on3)n2)cc1OC,-0.812
3,CSc1nncc(/C(C)=N\Nc2cccc(C)c2)n1,0.113
4,COc1ccc(/C=N/NC(=O)Cn2nnc3ccccc32)cc1OC,-0.749
5,Cc1cccc(C)c1NC(=O)COc1ccccc1C(=O)Nc1ccc(Br)cn1,-0.153
6,CN1CCN(c2ccc(NC(=O)c3ccccc3Br)cc2)CC1,0.227
7,Cc1nc(CN2CCOCC2)cc(=O)[nH]1,0.197
8,CC(=O)Nc1cccc(NC(=O)C2CCCN2C(=O)Nc2cccc(F)c2)c1 (stereo not drawn),-0.235
9,O=S(=O)(c1cnccc1N1CCN(/N=C/c2ccccc2)CC1)N1CCCCC1,-0.047
10,COc1cccc(-n2cnc3scc(-c4cccs4)c3c2=O)c1,-2.15
11,C/C(=N\O)C(=O)NCCCn1ccnc1,-0.342
12,CC(=C/c1ccccc1)/C=N/NC(=O)c1cc(C)oc1C,0.673
13,Cc1ccc(CN(c2ccc(C(=O)NCc3ccc4c(c3)OCO4)cc2)S(C)(=O)=O)cc1,0.187
14,CCN(CC)c1ccc(/C=C2\CCC(/C=N/NC(=O)c3ccc(=O)n(C)c3)=C2N2CCOCC2)cc1,-0.478
15,COc1ccccc1C1CC(=O)NC(SCC(=O)Nc2ccccc2)=C1C#N (stereo not drawn),0.225
16,O=C(O)CCNc1ccc2c(c1)OCCO2,-0.158
17,Nc1cc(Cl)ccc1Oc1ccccc1,-0.392
18,CCCNC(=O)Cn1c(=O)cnc2ccccc21,0.08
19,CCCCN(C(=O)NC(=O)Nc1nc2ccc(OC)cc2s1)S(C)(=O)=O,-0.125
20,Cc1nn(-c2ccccc2)c(N)c1C(c1ccccc1)c1c(C)nn(-c2ccccc2)c1N,-0.199
21,COc1ccc(/C=C2\CN(Cc3ccccc3)C/C(=C\c3ccc(OC)cc3)C2=O)cc1,-0.443
